Measurements taken from PubChem BioAssay AID624296 (National Center for Advancing Translational Sciences (NCATS), 2012).
Screen size: about 350,000 compounds; about 9,900 (2.8%) were called active. The inconclusive results got no clear call from the source; some entries with a clear call stand among them for comparison. The call rests on the fitted dose curve; in most records, active means well fitted activation curve with a large enough effect; inconclusive means small, poorly fitted or top-dose-only effect; inactive means no such curve, though single readings can be large or run the other way. Potencies of inconclusive entries are left out as doubtful fits.

test: A quantitative high throughput screen for small molecules that induce DNA re-replication in MCF 10a normal breast cells.; further: nearly all actives have a fitted effect of over 50% in size; details: MCF 10A DNA re-replication, Hoechst nuclear intensity, 48 h; series mostly up to 46.1 µM
Potency means the concentration at half of the fitted maximal effect; tags describe the fitted curve by direction and shape.

Row | Compound | Potency
1 | C=C1C(=O)C=C[C@]2(C)C[C@@H]3OC(=O)[C@](C)(O)[C@H]3C[C@@H]12 | active: 6.51 µM
2 | COc1cccc(CNC(=O)CCNS(=O)(=O)c2ccc(C)cc2)c1 | inactive
3 | C/C(=N/NS(=O)(=O)c1cccc([N+](=O)[O-])c1)c1c[nH]c2ccccc12 | inconclusive [activator, single point]
4 | CC(=O)C[C@@H](O)CC(=O)[C@@H]1OC(=O)CCCCCCCCc2ccccc21 | inactive
5 | CCOC(=O)c1c(C)[nH]c(C)c1C(=O)COC(=O)c1cccc(S(=O)(=O)N(CC)CC)c1 | inconclusive [activator, partial curve, poor fit]
6 | O=C1CSC(=S)N1N=Cc1ccc2c(c1)OCO2 | inactive
7 | CCOc1cc(C2Nc3ccccc3C(=O)N2c2ccccc2OC)ccc1O (stereo unspecified) | inconclusive [activator, partial curve, poor fit]
8 | CCOC(=O)c1cc(C#N)c(N2CCNCC2)nc1C(F)(F)F | inactive
9 | Cc1cc(NC(=O)CCC(=O)N(CCC(C)C)C(C(=O)NC2CCCC2)c2cccnc2)no1 (stereo unspecified) | inactive
10 | CCOC(=O)c1ccc(N2C(=O)c3n[nH]c(C)c3C2c2ccccc2)cc1 (stereo unspecified) | inactive
11 | Cc1c(C)c2ccc(OCC(=O)N3CCC(C(=O)O)CC3)c(C)c2oc1=O | inconclusive [activator, partial curve, poor fit]
12 | O=C(NCCc1ccc(Cl)cc1)c1cc2ccccn2n1 | inconclusive [activator, partial curve]
13 | Cc1cc([N+](=O)[O-])ccc1-c1ccc(C2Nc3ccccc3C(=O)N2O)o1 (stereo unspecified) | active: 10.3 µM
14 | COc1ccc(CCNC(=O)c2cc(-c3cc(C)cc(C)c3O)n[nH]2)cc1OC | inconclusive [activator, partial curve]
15 | Cc1nc(NC(=O)CCl)sc1C(=O)N(C)C | inactive
16 | COc1ccc(C(=O)CSc2[nH]c(=O)cc(C(F)(F)F)c2C#N)cc1 | active: 18.4 µM
17 | COC(=O)c1cc(NC(=O)c2ccc(-c3ccccc3)cc2)ccc1Cl | inactive
18 | CCCCCOc1ccc(C(=O)Nc2ccc(N3CCOCC3)cc2N2CCOCC2)cc1 | inconclusive [activator, full curve, poor fit]
19 | CCN(CC)CCN(Cc1cc2cc3c(cc2[nH]c1=O)OCCO3)C(=S)NCC(C)C | inconclusive [activator, single point]
20 | O=C1CCC(c2ccccc2)c2ccccc21 (stereo unspecified) | inactive
21 | c1cnc2c(SCc3ccc(-c4nnco4)cc3)cccc2c1 | inactive
22 | Cc1ccc(C(=O)Nc2ccc(N3CCN(C)CC3)cc2)cc1 | inconclusive [activator, partial curve, poor fit]
23 | Cc1cccc(C(=O)NCC(=O)N2CC=C(c3ccccc3)CC2)c1 | inconclusive [activator, single point]
24 | C#CCn1c(CCNC(=O)c2ccco2)nc2ccccc21 | inactive
25 | O=C(c1cccc(-n2cccc2)c1)N1CCN(S(=O)(=O)c2ccccc2Br)CC1 | inconclusive [activator, full curve, poor fit]
26 | COc1ccccc1C1=NN(C2=NN=C(N)Cc3ncnn32)C(O)(C(F)(F)F)C1 (stereo unspecified) | active: 0.58 µM

Row | Compound | Potency
27 | CC/C(=N/NC(=O)c1ccc(Br)cc1)c1ccc(OCCN2CCOCC2)cc1 | inactive
28 | CCc1ccc(N(C(=O)c2snc(C(N)=O)c2N)C(C(=O)NCC2CCCO2)c2ccco2)cc1 (stereo unspecified) | inconclusive [activator, single point]
29 | CCn1c(NN)nc2sc3c(c2c1=O)CCC3 | inconclusive [activator, single point]
30 | COc1ccc(Nc2nc3ccccc3n2C)cc1 | inactive
31 | CN(C(=O)COC(=O)c1cc2c(s1)CCCCC2)C1CCS(=O)(=O)C1 (stereo unspecified) | inactive
32 | Cc1ccc(-c2cnc3c(Cl)c(C)nn3c2)cc1 | inconclusive [activator, full curve, poor fit]
33 | CNS(=O)(=O)c1cccc(C(=O)OCCCC(=O)c2ccccc2)c1 | inactive
34 | O=C(CSc1nncc(=O)[nH]1)Nc1cccc([N+](=O)[O-])c1 | inconclusive [activator, partial curve, poor fit]
35 | CN1CCN(c2oc(-c3ccccc3Cl)nc2S(=O)(=O)c2ccccc2)CC1 | inactive
36 | CN1CCO[C@H](c2ccccc2)c2ccccc2C1 | inactive
37 | CCN(CC)C(=O)Cn1nc(-c2ccc(Cl)cc2)c2ccccc2c1=O | inactive
38 | O=C(COc1ccccc1Cl)N1CCN(c2ccc([N+](=O)[O-])c(N3CCCCC3)c2)CC1 | inactive
39 | COc1ccc(C(=O)/C=C/c2ccc(OCc3ccccc3)cc2)cc1CSCC(=O)O | active: 23.1 µM
40 | Cc1nn(CC(=O)NCc2ccc(-n3cccn3)cc2)c(C)c1[N+](=O)[O-] | inactive
41 | O=c1[nH]c(CN2CCN(c3ccccn3)CC2)nc2c(Br)cc(Br)cc12 | inconclusive [activator, single point]
42 | COc1cccc(CCNS(=O)(=O)CCNC(=O)c2cccc(OC)c2)c1 | inactive
43 | CCC(=O)Nc1ccc(NC(=O)CN2CCCC(C)C2)c(Cl)c1 (stereo unspecified) | inconclusive [activator, partial curve, poor fit]
44 | CCOc1cc(C)ccc1OCc1nnc(SCC(=O)c2cccc([N+](=O)[O-])c2)n1C | inactive
45 | COc1cc(/C=N/NC(=S)NCC2CCCO2)cc(OC)c1OC (stereo unspecified) | inactive
46 | CCNC(=O)c1cc2c(=O)n3cccc(C)c3nc2n(Cc2ccc(C)cc2)c1=N | inconclusive [activator, partial curve, poor fit]
47 | C=C(C)Cn1c(-c2ccc(OC)cc2)nc2ccccc21 | inconclusive [activator, single point]
48 | Nc1nnnn1/N=C/C(Br)=C/c1ccccc1 | active: 2.59 µM
49 | CC(C)CSc1nc2ccccc2[nH]1 | active: 0.58 µM
50 | CC(=O)N1CCc2cc(S(=O)(=O)CCC(=O)N(C)c3cc(C)ccc3C)ccc21 | inactive
51 | O=C1/C(=C/c2ccccc2O)SC(=S)N1Cc1cccnc1 | active: 6.51 µM
52 | NC(=O)CSc1nnc(NC(=O)C2CC(=O)N(c3ccc(F)cc3)C2)s1 (stereo unspecified) | inactive

Row | Compound | Potency
53 | N#CC1=C(N)NC(SCc2ccccc2)=C(C#N)C12CCCC2 | active: 18.4 µM
54 | Cc1ccc(S(=O)(=O)Nc2cc(C(=O)NCCN(C)C)ccc2N2CCCCC2)cc1 | inconclusive [activator, partial curve, poor fit]
55 | COc1ccc(N2CCN(C(c3nnnn3C3CCCC3)C(C)C)CC2)cc1 (stereo unspecified) | inconclusive [activator, single point]
56 | COc1ccc(CCNc2ncnc3c2[nH]c2cc(OC)c(OC)cc23)cc1OC | active: 18.4 µM
57 | CCCc1nc2ccccc2c(C(=O)OC(C)C(=O)NCc2ccc3c(c2)OCO3)c1CC (stereo unspecified) | inconclusive [activator, single point]
58 | CN(/N=C/c1ccc(Cl)cc1)c1ncc(Cl)cc1C(F)(F)F | inconclusive [activator, single point]
59 | Cn1c(Cn2c(=O)sc3ccccc32)nnc1SCC(=O)NCc1ccco1 | inconclusive [activator, single point]
60 | O=C(NNC(=O)c1cc2ccccc2[nH]1)OCc1ccccc1 | inactive
61 | CCOC(=O)c1nn(-c2ccc(C)cc2)c(=O)cc1OCC(=O)N1CCN(c2ccccc2)CC1 | inactive
62 | COc1ccc2c(c1)CC/C2=N\NC(=O)c1ccccc1 | inconclusive [activator, single point]
63 | CC(C)CCOc1ccc(-c2c(=O)n(OCc3ccc([N+](=O)[O-])cc3)c3ccccc3[n+]2[O-])cc1 | active: 1.84 µM
64 | COc1cc(C(=O)NC(=S)Nc2ccc([N+](=O)[O-])cc2)cc(OC)c1OC | inconclusive [activator, partial curve]
65 | CCNc1c(NS(=O)(=O)c2ccc(OC)cc2)c(=O)oc2ccccc12 | inactive
66 | CC(=O)/C=C/c1ccc2ccccc2n1 | active: 14.6 µM
67 | O=C(Nc1ccc(Nc2ccccc2)cc1)C(Cl)Cl | inconclusive [activator, single point]
68 | Cc1c(CC(Cl)(Cl)Cl)c2c(n1O)CC(C)(C)CC2=O | inconclusive [activator, single point]
69 | Cc1nc2cccc(C(=O)Oc3ccc([N+](=O)[O-])cc3)c2o1 | inconclusive [activator, single point]
70 | COc1ccc(OC)c(S(=O)(=O)N/N=C\c2cn(CC(N)=O)c3ccccc23)c1 | inconclusive [activator, single point]
71 | CCOc1c2ccc(C(=O)NCc3ccccc3OC)cc2nn1CC | inconclusive [activator, single point]
72 | COc1ccc2c(c1)c(/C=N/Nc1nc3ccccc3[nH]1)c(C)n2C | active: 20.6 µM
73 | N#Cc1c(F)cccc1N1CCN(Cc2ccc3c(c2)OCO3)CC1 | inconclusive [activator, single point]
74 | CS(=O)(=O)N1CCC(C(=O)Nc2ccc(Oc3ccccc3)cc2)CC1 | active: 9.2 µM
75 | CCOC(=O)c1c(NC(=O)CSc2nnc(CNc3ccc(F)cc3)o2)sc(C)c1C | inconclusive [activator, single point]
76 | O=C1c2cccc3cccc(c23)C(=O)N1Nc1ccccc1 | inconclusive [activator, single point]
